Experimental data as given in PubChem BioAssay AID1460 (National Center for Advancing Translational Sciences (NCATS), 2008).
The whole screen tested about 270,000 compounds, of which about 5,800 (2.1%) were called active. Inconclusive results, whose numbers are uncertain, are shown with a selection of clear calls. The call rests on the fitted dose curve; in most records, active means well fitted inhibition curve with a large enough effect; inconclusive means small, poorly fitted or top-dose-only effect; inactive means flat fitted curve, though single readings scatter. Where the call is inconclusive, the potency comes from a doubtful curve fit.

Target: Microtubule-associated protein tau (Homo sapiens) (UniProt P10636)
Sequence of UniProt P10636 (P10636 whole entry, looked up): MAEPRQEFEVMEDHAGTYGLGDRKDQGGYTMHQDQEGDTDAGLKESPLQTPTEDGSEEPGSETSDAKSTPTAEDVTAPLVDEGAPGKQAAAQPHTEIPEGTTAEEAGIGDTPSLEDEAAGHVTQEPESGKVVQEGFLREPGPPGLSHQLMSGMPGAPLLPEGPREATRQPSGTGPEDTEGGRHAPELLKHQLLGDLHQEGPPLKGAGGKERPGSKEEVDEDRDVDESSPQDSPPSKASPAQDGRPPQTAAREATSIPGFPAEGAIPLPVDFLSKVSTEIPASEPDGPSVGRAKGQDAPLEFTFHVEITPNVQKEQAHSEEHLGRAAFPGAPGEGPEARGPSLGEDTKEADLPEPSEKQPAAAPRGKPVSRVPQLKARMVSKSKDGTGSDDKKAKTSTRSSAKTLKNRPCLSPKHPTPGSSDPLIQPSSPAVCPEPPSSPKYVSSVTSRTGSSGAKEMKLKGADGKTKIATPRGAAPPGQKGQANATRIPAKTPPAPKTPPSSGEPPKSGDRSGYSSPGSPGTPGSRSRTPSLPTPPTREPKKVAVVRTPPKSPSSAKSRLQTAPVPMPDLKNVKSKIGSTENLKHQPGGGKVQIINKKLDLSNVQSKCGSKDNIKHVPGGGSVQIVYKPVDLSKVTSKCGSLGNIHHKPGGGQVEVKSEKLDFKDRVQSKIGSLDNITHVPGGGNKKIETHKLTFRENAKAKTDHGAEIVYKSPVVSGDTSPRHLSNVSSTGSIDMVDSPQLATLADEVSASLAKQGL
Experiment: qHTS for Inhibitors of Tau Fibril Formation, Thioflavin T Binding; further: nearly all actives have a fitted effect of over 55% in size
Conditions: recombinant tau K18 P301L, heparin-induced fibrillization, ThT fluorescence; series mostly up to 57.4 µM; activity, negative = inhibition: at the top concentration
Procedure, shortened: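 Using a mix of unlabeled (15 uM) and Alexa 594-labeled (0.24 uM) tau K18 P301L, heparin-triggered fibrillization over 6 hr at 37 C was scored by ThT fluorescence.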
On the % scale 0 is the no-effect control and ±100 the full control effect; potency means the concentration at half of the fitted maximal effect; tags describe the fitted curve by direction and shape.

| Structure (SMILES) | Potency | activity, negative = inhibition |
| --- | --- | --- |
| COc1ccc2c(c1)CC[C@@H]1[C@@H]2CC[C@]2(C)C(=O)CC[C@@H]12 | inconclusive: 12.6 µM [inhibitor, partial curve, poor fit] | – |
| CCOCCCNS(=O)(=O)c1ccc(NC(=O)c2ccc(OC)c([N+](=O)[O-])c2)cc1 | – | inactive: 6.02% |
| CN(C)c1ncc(S(=O)(=O)c2ccccc2)c(-c2ccc(Cl)cc2Cl)n1 | inconclusive: 17.8 µM [inhibitor, partial curve] | – |
| CCc1ccc(-n2nc(CO)c(C(=O)NCCCc3ccccc3)n2)cc1 | inconclusive: 17.8 µM [inhibitor, single point] | – |
| COc1ccc(C(C)=O)cc1CSc1nnc(-c2ccc(Cl)cc2)n1-c1ccccc1 | – | inactive: -11.2% |
| N=C(N)SCc1ccc(O)c([N+](=O)[O-])c1 | inconclusive: 20 µM [inhibitor, partial curve] | – |
| COc1ccc(NC(=O)Nc2ccc(N3CCCC3=O)cc2)cc1OC | inconclusive: 8.91 µM [inhibitor, partial curve] | – |
| CC(=O)N1C2(C=CC1(C)C(=O)NCc1ccc(C)o1)CCCCC2 (centres undefined) | inconclusive: 31.6 µM [inhibitor, partial curve] | – |
| CCc1cccc(NC(=O)C2CCC(CNS(=O)(=O)c3ccc(Br)s3)CC2)c1 (centres undefined) | – | inactive: -6.36% |
| Cc1ccc(NC(=O)c2cc(S(=O)(=O)N3CCc4ccccc43)cn2C)c(Cl)c1 | inconclusive: 15.8 µM [inhibitor, partial curve] | – |
| O=C(NCCNC(=O)c1ccc([N+](=O)[O-])cc1)c1ccncc1 | inconclusive: 12.6 µM [inhibitor, partial curve, poor fit] | – |
| c1ccc(CN2CCN(c3ncnc4c3cnn4-c3ccccc3)CC2)cc1 | inconclusive: 0.355 µM [inhibitor, full curve, poor fit] | – |
| CCOc1ccc(-c2c(C)nn3c(C)c(C(=O)NCCc4ccc(Cl)cc4)cnc23)cc1OCC | inconclusive: 7.08 µM [inhibitor, partial curve, poor fit] | – |
| COC(=O)c1ccccc1NC(=O)c1cc2cc(C)ccc2n1C | inconclusive: 44.7 µM [inhibitor, single point] | – |
| Cc1ccc(S(=O)(=O)Cc2ccc(C(=O)N3CCN(c4cccc(Cl)c4)CC3)o2)cc1 | inconclusive: 15.8 µM [inhibitor, partial curve] | – |
| COc1cccc(-c2csc(N3CCN(C(=S)Nc4ccccc4OC)CC3)n2)c1 | inconclusive: 8.91 µM [inhibitor, partial curve] | – |
| COCCNC(=O)c1cc2oc3ccccc3c2n1C | – | inactive: -19.4% |
| Cc1ccccc1OCC(=O)Nc1cccc(C(=O)OCc2cc(=O)n3c(C)csc3n2)c1 | inconclusive: 5.62 µM [inhibitor, full curve] | – |
| CCN(C(=O)COC(=O)CNC(=O)c1ccc(F)cc1)C1CCS(=O)(=O)C1 (centres undefined) | inconclusive: 15.8 µM [inhibitor, single point] | – |
| COC(=O)c1ccc(COc2ccc(C3C4=C(CCCC4=O)Nc4onc(C)c43)cc2)cc1 (centres undefined) | inconclusive: 10 µM [inhibitor, partial curve] | – |
| Cc1cc(C)cc(NS(=O)(=O)c2cc(C(=O)NCc3ccccn3)ccc2Cl)c1 | – | inactive: -7.47% |
| CCOC(=O)c1sc(=S)n(-c2ccccc2)c1SC | – | inactive: -17.7% |

| Structure (SMILES) | Potency | activity, negative = inhibition |
| --- | --- | --- |
| CCC(=O)N(C)/C=C1\Sc2ccccc2C1=O | inconclusive: 31.6 µM [inhibitor, partial curve] | – |
| Cc1ccc(C)c(Cn2c(=O)n(C(C)C)c(=O)c3oc4ccccc4c32)c1 | – | inactive: 3.31% |
| Cc1cccc(-n2ncc3c(Nc4ccc(C)c(Cl)c4)ncnc32)c1 | – | inactive: 11.3% |
| O=C(COc1ccc(Cl)cc1Cl)OCC(=O)N1CCCc2ccccc21 | inconclusive: 17.8 µM [inhibitor, partial curve] | – |
| CCOC(=O)c1cc2occc2n1Cc1ccc(F)cc1 | inconclusive: 28.2 µM [inhibitor, single point] | – |
| O=c1cc(O)c2sc(Nc3ccc(Cl)c(F)c3)nc2[nH]1 | active: 15.8 µM | – |
| Cc1cc(=O)n(CC(C)C)c(O)c1C#N | inconclusive: 17.8 µM [inhibitor, partial curve] | – |
| CCOc1ccc(C(=O)NC2CC(=O)N(c3ccc(C)cc3)C2)cc1OCC (centres undefined) | – | inactive: 7.45% |
| COc1ccc(S(=O)(=O)N2CCN(c3ccc4nnc(-c5ccc(F)cc5)n4n3)CC2)cc1 | inconclusive: 22.4 µM [inhibitor, partial curve] | – |
| COc1ccc(/C=N/NC(=O)c2nc(-c3ccccc3)cc(-c3ccccc3)n2)cc1O | inconclusive: 8.91 µM [inhibitor, full curve] | – |
| COc1ccc(/C=N/Nc2nc(N)cc(Cl)n2)cc1OC | inconclusive: 28.2 µM [inhibitor, single point] | – |
| CCOC(=O)CN1C(=O)C(O)(CC(=O)c2ccco2)c2ccccc21 (centres undefined) | – | inactive: -5.07% |
| COc1ccc(/C=N/Nc2nc3ccccc3c(=O)[nH]2)cc1 | inconclusive: 2.24 µM [inhibitor, full curve] | – |
| CCC(C)(C)c1ccc(Oc2ccc(NC(=O)COC(=O)C3=COCCO3)cc2)cc1 | inconclusive: 44.7 µM [inhibitor, single point] | – |
| Cc1cc(N(C)/N=C/c2ccccc2)nc(-c2ccccc2O)n1 | inconclusive: 3.16 µM [inhibitor, full curve, poor fit] | – |
| O=C(NC(=S)Nc1ccccc1N1CCCC1)c1ccco1 | inconclusive: 28.2 µM [inhibitor, partial curve] | – |
| COC(=O)c1ccc(COC(=O)c2ccc(CS(=O)(=O)c3ccc(C)cc3)cc2)cc1 | – | inactive: -5.89% |
| Cc1ccc(-c2c(C(=O)NNC(=S)NCC3CCCO3)csc2C)cc1 (centres undefined) | – | inactive: -6.89% |
| CCOC(=O)c1cnc2c(-c3ccccc3)c(C)nn2c1N | inconclusive: 2.24 µM [inhibitor, full curve, poor fit] | – |
| Cn1nnnc1SCC(=O)Nc1ccccc1Cl | – | inactive: 1.27% |
| O=C(Nn1c(Cc2ccccc2)nc2ccccc2c1=O)c1c(O)c2cccc3c2n(c1=O)CCC3 | – | inactive: 1.21% |
| Cn1c(C(=O)NCCc2c[nH]c3ccccc23)cc2sccc21 | inconclusive: 15.8 µM [inhibitor, partial curve] | – |
